According to PubChem BioAssay (NCATS):
This list was built around the results that the source calls inconclusive (neither active nor inactive); the mix of calls is not that of the screen. Potencies of inconclusive entries are doubtful fits and often do not repeat. Activity calls are given as the source filed them. Calls come from the whole dose curve; as a rule, active = well fitted cell-killing curve with a large enough effect; inconclusive = small, poorly fitted or top-dose-only effect, or effect the other way; inactive = no such curve, though single readings can be large or run the other way.

test: Viability qHTS for spleen associated tyrosine kinase inhibitor (SYKi) naive MV4-11 cells (AID 1963823); conditions: MV4-11 AML viability, CellTiter-Glo luminescence, 72 h; viability (% of control): at 45 µM (top of the series); note: nearly all actives have a fitted effect of over 40% in size
Outline: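 Luminescence from CellTiter-Glo, developed 10 min at room temperature, gave viability of MV4-11 cells never exposed to SYK inhibitor. Cells (500/well) had been incubated with compounds for 72 hr under standard culture conditions.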
Potency is the fitted concentration of half-maximal effect; tags give direction and shape of the fitted curve.

Structure (SMILES)	Potency	viability (% of control)
CC1(C)CCCC2(C)C1C(O)C=C(CO)C2(O)CO (centres undefined)	inconclusive: 9.2 µM [cytotoxic, partial curve]	
CC[C@@]1(O)C(=O)OCc2c1cc1n(c2=O)Cc2c-1nc1ccccc1c2/C=N/OC(C)(C)C	active: 0.0084 µM	
Cc1cc(-c2cnn3c(NCC4CC(C)(O)C4)cc(Oc4cccnc4)nc23)ccc1C(=O)NC1CC1 (centres undefined)	inconclusive: 0.105 µM [cytotoxic, full curve]	
CC(=O)OC[C@@]12[C@H](O)C[C@@H](C)[C@]3(C[C@@H](c4ccoc4)OC3=O)[C@H]1C[C@H](O)C[C@]21CO1	inconclusive: 10 µM [cytotoxic, partial curve, poor fit]	
CC[C@H](C)[C@H](NC(=O)[C@H](Cc1ccc(O)cc1)NC(=O)[C@@H](N)C(C)C)C(=O)N[C@@H](Cc1cnc[nH]1)C(=O)N1CCC[C@H]1C(=O)N[C@@H](Cc1ccccc1)C(=O)O		inactive: 98.9% [at 4.97 µM]
CC(C)CC(=O)OC[C@H]1O[C@@](COC(=O)CC(C)C)(O[C@H]2O[C@H](CO)[C@@H](O)[C@H](O)[C@H]2OC(=O)CC(C)C)[C@@H](OC(=O)CC(C)C)[C@@H]1O	inconclusive: 9.68 µM [cytotoxic, single point]	
C/C1=C\CC(C)(C)/C=C/C/C(C(=O)O)=C/CC1	active: 23.1 µM	
CC1CCC23COC(=O)C2=CC(O)CC3C1(C)CCc1ccoc1 (centres undefined)		inactive: 86.2%
COCC(=O)N1CCc2cc(-c3csc(NC(=O)c4cc(OC)cc(OC)c4)n3)ccc21	inconclusive: 6.51 µM [cytotoxic, partial curve, poor fit]	
